Among all 310,000 compounds or so, about 14,000 (4.5%) showed an effect of 50% or more. Effects have a minus sign here. The list shows a part of the results.
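Also: peak tail current of the secondary pulse compared with the same well before compound.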

For this test, the target named is human ether-à-go-go-related gene (hERG) potassium channel (human, UniProt Q12809). Nature of the test: primary screen, population patch clamp on CHO cells stably expressing hERG.
Sequence of human ether-à-go-go-related gene (hERG) potassium channel (Q12809 whole entry, looked up): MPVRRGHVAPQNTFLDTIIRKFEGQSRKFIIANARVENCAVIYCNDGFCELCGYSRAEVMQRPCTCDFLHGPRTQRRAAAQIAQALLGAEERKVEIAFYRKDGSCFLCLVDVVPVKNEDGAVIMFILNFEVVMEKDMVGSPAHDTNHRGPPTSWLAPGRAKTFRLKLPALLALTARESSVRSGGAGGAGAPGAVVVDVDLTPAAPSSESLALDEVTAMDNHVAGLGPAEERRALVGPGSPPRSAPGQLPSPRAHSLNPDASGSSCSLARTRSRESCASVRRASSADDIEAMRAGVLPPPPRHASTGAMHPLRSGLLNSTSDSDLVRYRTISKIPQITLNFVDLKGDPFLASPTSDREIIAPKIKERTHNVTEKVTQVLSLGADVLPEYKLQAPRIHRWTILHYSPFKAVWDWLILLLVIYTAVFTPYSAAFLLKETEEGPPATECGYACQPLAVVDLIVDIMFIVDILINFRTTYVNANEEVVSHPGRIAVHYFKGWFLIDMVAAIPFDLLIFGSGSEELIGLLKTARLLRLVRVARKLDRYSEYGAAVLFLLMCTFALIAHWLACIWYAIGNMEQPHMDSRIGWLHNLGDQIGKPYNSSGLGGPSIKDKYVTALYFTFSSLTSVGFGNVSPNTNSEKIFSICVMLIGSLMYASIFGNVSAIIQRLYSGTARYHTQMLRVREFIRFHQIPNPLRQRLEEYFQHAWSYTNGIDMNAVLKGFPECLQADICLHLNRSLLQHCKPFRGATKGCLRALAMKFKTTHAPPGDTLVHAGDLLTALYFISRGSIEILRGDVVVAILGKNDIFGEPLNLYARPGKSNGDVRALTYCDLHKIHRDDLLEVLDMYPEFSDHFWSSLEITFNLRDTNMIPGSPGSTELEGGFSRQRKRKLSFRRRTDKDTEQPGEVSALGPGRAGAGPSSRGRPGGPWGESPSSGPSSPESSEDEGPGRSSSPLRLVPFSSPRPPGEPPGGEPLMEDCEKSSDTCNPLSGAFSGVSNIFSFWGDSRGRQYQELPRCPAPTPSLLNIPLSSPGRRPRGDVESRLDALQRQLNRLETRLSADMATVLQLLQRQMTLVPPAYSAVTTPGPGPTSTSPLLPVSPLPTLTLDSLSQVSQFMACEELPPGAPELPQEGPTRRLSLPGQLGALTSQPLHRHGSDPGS
For `Cc1cc(C)n(CCOc2ccc(Br)cc2)n1`, the “hERG current change (%, negative = inhibition) at 10uM” value was 1.08%.

Turning to `Cc1cc(C)c(-c2csc(NC(=O)c3cc([N+](=O)[O-])ccc3N3CCOCC3)n2)c(C)c1`, the “hERG current change (%, negative = inhibition) at 10uM” value amounted to 7.97%.

Turning to `O=C(c1ccc(-c2ccccc2Cl)o1)N1CCCC(C(F)(F)F)C1` (stereo not drawn), the “hERG current change (%, negative = inhibition) at 10uM” value was 2.73%.

Regarding `CCN1CCN(C(=O)C2CCN(c3nnc(C)c4c(C)n(-c5ccc(C)cc5)nc34)CC2)CC1`, the “hERG current change (%, negative = inhibition) at 10uM” value is given as 3.86%.

For the compound `COc1ccc2c(c1)c(=O)c(C(=O)c1ccccc1)cn2Cc1ccc(C)cc1`, the “hERG current change (%, negative = inhibition) at 10uM” value is given as -75%.

As to `CC(C)C1CC(C(F)(F)F)n2nc(C(=O)O)cc2N1` (stereo not drawn), the “hERG current change (%, negative = inhibition) at 10uM” value came out at 13.4%.

In the case of `Cc1ccc2cc(C(c3nnnn3C3CCCC3)N(Cc3ccccc3)Cc3ccco3)c(=O)[nH]c2c1` (stereo not drawn), the “hERG current change (%, negative = inhibition) at 10uM” value came out at 10.7%.

Turning to `CC1(c2ccc(Cl)cc2)NC(=O)N(CC(=O)c2ccc3c(c2)OCO3)C1=O` (stereo not drawn), the “hERG current change (%, negative = inhibition) at 10uM” value is 4.42%.

Consider `O=C(NCc1ccco1)c1ccc(=O)[nH]n1`, for which the “hERG current change (%, negative = inhibition) at 10uM” value was 17.8%.

Regarding `C=CCc1ccccc1OCC(O)CN1CCN(c2ccccc2F)CC1.Cl` (stereo not drawn), the “hERG current change (%, negative = inhibition) at 10uM” value is recorded as -40.9%.

Regarding `CCn1c(CCNC(=O)c2cccs2)nnc1SCC(=O)Nc1ccc(Cl)cc1`, the “hERG current change (%, negative = inhibition) at 10uM” value was -49.7%.

Regarding `Cc1ccc(CN2CCN(/N=C/c3ccccc3)CC2)cc1`, the “hERG current change (%, negative = inhibition) at 10uM” value is on record as -12.7%.

As to `O=C(N/N=C/c1coc2ccc(Cl)cc2c1=O)c1ccc(O)cc1`, the “hERG current change (%, negative = inhibition) at 10uM” value came to 19.3%.

In the case of `Cc1cccc(NC(=O)CSc2nnc(-c3ccco3)o2)c1`, the “hERG current change (%, negative = inhibition) at 10uM” value amounted to 3.61%.

For `CCN1CCSc2ccc(C(=O)NCc3ccc(OC(C)C)cc3)cc21`, the “hERG current change (%, negative = inhibition) at 10uM” value is -0.114%.

In the case of `CCOC(=O)Cn1nc(-c2ccc(Cl)cc2)cc1N`, the “hERG current change (%, negative = inhibition) at 10uM” value is -8.3%.

Turning to `O=S(=O)(Nc1ccccn1)c1cccs1`, the “hERG current change (%, negative = inhibition) at 10uM” value is reported as 19.2%.

`Cn1c(O)c(C=Nc2ccc(Cl)cc2)c(=O)n(C)c1=O`: the “hERG current change (%, negative = inhibition) at 10uM” value is on record as -8.57%.

For `Cc1cc(C)c(NC(=O)COC(=O)CCn2c(C)csc2=O)c(C)c1`, the “hERG current change (%, negative = inhibition) at 10uM” value is listed as -10.6%.

With `O=C(NCc1cccs1)c1cccnc1SCCS(=O)(=O)c1ccc(C(F)(F)F)cn1`, the “hERG current change (%, negative = inhibition) at 10uM” value is listed as -1.44%.

Consider `CCN(CC)CCN(Cc1cc2ccc(C)cc2[nH]c1=O)C(=O)NC1CCCCC1`, for which the “hERG current change (%, negative = inhibition) at 10uM” value is -73.1%.

On to `Cc1nc(N2CCC(C)CC2)c(C#N)c(C)c1[N+](=O)[O-]`, for which the “hERG current change (%, negative = inhibition) at 10uM” value was -10.8%.

For `COc1ccc(C(=O)N2CCn3c2nc2ccccc23)cc1`, the “hERG current change (%, negative = inhibition) at 10uM” value is listed as -14.1%.

Consider `CCNc1nc(NC(C)C)nc(Oc2ccc(OCCOc3ccccc3)nn2)n1`, for which the “hERG current change (%, negative = inhibition) at 10uM” value is given as -25.5%.

On to `S=C(Nc1ccccc1)N1N=CCC1c1ccccc1` (stereo not drawn), for which the “hERG current change (%, negative = inhibition) at 10uM” value was -18.9%.

Turning to `CCCn1cc(CN2CCC(Cc3cccc(F)c3)(C(=O)OCC)CC2)c(C)n1`, the “hERG current change (%, negative = inhibition) at 10uM” value is recorded as -67.2%.

`CCSc1nnc(-c2ccncc2)o1`: the “hERG current change (%, negative = inhibition) at 10uM” value is given as 34.1%.

Turning to `CC(C)NC(=O)COC(=O)c1cc(F)c(F)cc1Cl`, the “hERG current change (%, negative = inhibition) at 10uM” value came out at 25.2%.

On to `NNC(=O)c1cc(O)c(O)c(O)c1`, for which the “hERG current change (%, negative = inhibition) at 10uM” value is 20.8%.

Consider `O=C(CCCC1=NS(=O)(=O)c2ccccc2N1)N1CCN(c2ccc(Cl)cc2)CC1`, for which the “hERG current change (%, negative = inhibition) at 10uM” value was -61.1%.

In the case of `O=C(O)/C=C/C(=O)NNC(=O)c1ccc(Br)cc1`, the “hERG current change (%, negative = inhibition) at 10uM” value was found to be 3.76%.

With `O=c1oc(-c2ccccc2)nc2sc3c(c12)CCC3`, the “hERG current change (%, negative = inhibition) at 10uM” value was determined as 0.375%.

`C=CCNC(=O)C1CCN(S(=O)(=O)c2ccccc2)CC1`: the “hERG current change (%, negative = inhibition) at 10uM” value is reported as -2.98%.

As to `CCOC(=O)Cc1csc(NC(=O)CSc2nnnn2-c2ccc(F)cc2)n1`, the “hERG current change (%, negative = inhibition) at 10uM” value was -12%.

As to `O=C(O)C1CCCCN1C(=O)c1ccc(S(=O)(=O)N2CCCCCC2)cc1` (stereo not drawn), the “hERG current change (%, negative = inhibition) at 10uM” value turned out to be 14.4%.

Turning to `COc1ccc(C(=O)O)cc1S(=O)(=O)N(C)CCc1ccccn1`, the “hERG current change (%, negative = inhibition) at 10uM” value is listed as 29.5%.

With `Cc1ccccc1-c1nc(CN2CCSCC2)c(C)o1`, the “hERG current change (%, negative = inhibition) at 10uM” value is -6.39%.

For `COc1ccc(/C=C/C(=O)c2nc3ccccc3n2CC(=O)c2ccc(OC)cc2)cc1`, the “hERG current change (%, negative = inhibition) at 10uM” value is given as -0.153%.

Consider `CCCCc1ccc(-c2nc(-c3ccncc3)no2)cc1`, for which the “hERG current change (%, negative = inhibition) at 10uM” value stood at 16%.

`Cc1c(Cl)cccc1NC(=S)NCc1ccc(F)cc1`: the “hERG current change (%, negative = inhibition) at 10uM” value is recorded as 7.42%.

For the compound `CSc1ccccc1OCc1cc(C(=O)N(C)CCn2nc(C)cc2C)no1`, the “hERG current change (%, negative = inhibition) at 10uM” value is reported as -3.8%.

On to `CN(CC(=O)Nc1ccccc1Br)C(=O)c1cc(Cl)nc2ccccc12`, for which the “hERG current change (%, negative = inhibition) at 10uM” value is recorded as -20.1%.

In the case of `S=C(Nc1cccc(Br)c1)c1ccccc1`, the “hERG current change (%, negative = inhibition) at 10uM” value was -21.7%.

For `CCOCCCNC(=O)c1ccccc1OC1CCN(S(C)(=O)=O)CC1`, the “hERG current change (%, negative = inhibition) at 10uM” value amounted to 15.5%.

`CCCN(Cc1cc(=O)[nH]c2ccccc12)C(=O)CC`: the “hERG current change (%, negative = inhibition) at 10uM” value stood at 18.5%.

The values are drawn from PMC4336329 (PLoS ONE, 2015).
